# Reference: the supplement of paper PMC8728848
# This is one part of the list.
# How the values were obtained:
# Test in all cases: glycan array binding signal (z-score within array); higher = stronger binding
# Details in all cases: glycan notation: IUPAC condensed, linker removed
# [1] = target: GlcNAc(b1-2)[GlcNAc(b1-6)]Man(a1-6)[GlcNAc(b1-4)][GlcNAc(b1-2)Man(a1-3)]Man(b1-4)GlcNAc(b1-4)GlcNAc
# Method in brief: (§1)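 The binding signal is a Z-score computed within each array. Data were drawn from 3228 arrays in the Consortium for Functional Glycomics database, restricted to those with a known protein sequence. Scores were averaged over arrays of the same protein sequence at different concentrations or buffers, and over linkers, and negative values can be taken as non-binding.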
# GlcNAc(b1-3)Fuc = target: GlcNAc(b1-3)Fuc
# Method in brief: as §1
# GlcNAc(b1-3)Gal = target: GlcNAc(b1-3)Gal
# Method in brief: as §1
# [2] = target: GlcNAc(b1-3)Gal(b1-3)GalNAc
# Method in brief: as §1
# GlcNAc(b1-3)Gal(b1-4)Glc = target: GlcNAc(b1-3)Gal(b1-4)Glc
# Method in brief: as §1
# [3] = target: GlcNAc(b1-3)Gal(b1-4)GlcNAc
# Method in brief: as §1
# [4] = target: GlcNAc(b1-3)Gal(b1-4)GlcNAc(b1-2)Man(a1-3)[GlcNAc(b1-3)Gal(b1-4)GlcNAc(b1-2)Man(a1-6)]Man(b1-4)GlcNAc(b1-4)GlcNAc
# Method in brief: as §1
# [5] = target: GlcNAc(b1-3)Gal(b1-4)GlcNAc(b1-2)Man(a1-3)[GlcNAc(b1-3)Gal(b1-4)GlcNAc(b1-2)Man(a1-6)]Man(b1-4)GlcNAc(b1-4)[Fuc(a1-6)]GlcNAc
# Method in brief: as §1
# [6] = target: GlcNAc(b1-3)Gal(b1-4)GlcNAc(b1-2)[GlcNAc(b1-3)Gal(b1-4)GlcNAc(b1-6)]Man(a1-6)[GlcNAc(b1-3)Gal(b1-4)GlcNAc(b1-2)Man(a1-3)]Man(b1-4)GlcNAc(b1-4)GlcNAc
# Method in brief: as §1
# [7] = target: GlcNAc(b1-3)Gal(b1-4)GlcNAc(b1-3)Gal(b1-4)GlcNAc
# Method in brief: as §1
# [8] = target: GlcNAc(b1-3)Gal(b1-4)GlcNAc(b1-3)Gal(b1-4)GlcNAc(b1-2)Man(a1-3)[GlcNAc(b1-3)Gal(b1-4)GlcNAc(b1-3)Gal(b1-4)GlcNAc(b1-2)Man(a1-6)]Man(b1-4)GlcNAc(b1-4)GlcNAc
# Method in brief: as §1
# [9] = target: GlcNAc(b1-3)Gal(b1-4)GlcNAc(b1-3)Gal(b1-4)GlcNAc(b1-2)Man(a1-3)[GlcNAc(b1-3)Gal(b1-4)GlcNAc(b1-3)Gal(b1-4)GlcNAc(b1-2)Man(a1-6)]Man(b1-4)GlcNAc(b1-4)[Fuc(a1-6)]GlcNAc
# Method in brief: as §1
# [10] = target: GlcNAc(b1-3)Gal(b1-4)GlcNAc(b1-3)Gal(b1-4)GlcNAc(b1-2)[GlcNAc(b1-3)Gal(b1-4)GlcNAc(b1-3)Gal(b1-4)GlcNAc(b1-6)]Man(a1-6)[GlcNAc(b1-3)Gal(b1-4)GlcNAc(b1-3)Gal(b1-4)GlcNAc(b1-2)Man(a1-3)]Man(b1-4)GlcNAc(b1-4)[Fuc(a1-6)]GlcNAc
# Method in brief: as §1
# [11] = target: GlcNAc(b1-3)Gal(b1-4)GlcNAc(b1-3)Gal(b1-4)GlcNAc(b1-3)Gal(b1-4)GlcNAc(b1-2)Man(a1-3)[GlcNAc(b1-3)Gal(b1-4)GlcNAc(b1-3)Gal(b1-4)GlcNAc(b1-3)Gal(b1-4)GlcNAc(b1-2)Man(a1-6)]Man(b1-4)GlcNAc(b1-4)GlcNAc
# Method in brief: as §1
# [12] = target: GlcNAc(b1-3)Gal(b1-4)GlcNAc(b1-3)Gal(b1-4)GlcNAc(b1-3)Gal(b1-4)GlcNAc(b1-2)Man(a1-3)[GlcNAc(b1-3)Gal(b1-4)GlcNAc(b1-3)Gal(b1-4)GlcNAc(b1-3)Gal(b1-4)GlcNAc(b1-2)Man(a1-6)]Man(b1-4)GlcNAc(b1-4)[Fuc(a1-6)]GlcNAc
# Method in brief: as §1
# [13] = target: GlcNAc(b1-3)Gal(b1-4)GlcNAc(b1-3)Gal(b1-4)GlcNAc(b1-3)Gal(b1-4)GlcNAc(b1-2)[GlcNAc(b1-3)Gal(b1-4)GlcNAc(b1-3)Gal(b1-4)GlcNAc(b1-3)Gal(b1-4)GlcNAc(b1-6)]Man(a1-6)[GlcNAc(b1-3)Gal(b1-4)GlcNAc(b1-3)Gal(b1-4)GlcNAc(b1-3)Gal(b1-4)GlcNAc(b1-2)Man(a1-3)]Man(b1-4)GlcNAc(b1-4)[Fuc(a1-6)]GlcNAc
# Method in brief: as §1
# [14] = target: GlcNAc(b1-3)Gal(b1-4)GlcNAc(b1-3)Gal(b1-4)GlcNAc(b1-3)Gal(b1-4)GlcNAc(b1-3)Gal(b1-4)GlcNAc(b1-2)Man(a1-3)[GlcNAc(b1-3)Gal(b1-4)GlcNAc(b1-3)Gal(b1-4)GlcNAc(b1-3)Gal(b1-4)GlcNAc(b1-3)Gal(b1-4)GlcNAc(b1-2)Man(a1-6)]Man(b1-4)GlcNAc(b1-4)GlcNAc
# Method in brief: as §1
# [15] = target: GlcNAc(b1-3)Gal(b1-4)GlcNAc(b1-3)Gal(b1-4)GlcNAc(b1-3)Gal(b1-4)GlcNAc(b1-3)Gal(b1-4)GlcNAc(b1-2)Man(a1-3)[GlcNAc(b1-3)Gal(b1-4)GlcNAc(b1-3)Gal(b1-4)GlcNAc(b1-3)Gal(b1-4)GlcNAc(b1-3)Gal(b1-4)GlcNAc(b1-2)Man(a1-6)]Man(b1-4)GlcNAc(b1-4)[Fuc(a1-6)]GlcNAc
# Method in brief: as §1
# [16] = target: GlcNAc(b1-3)Gal(b1-4)GlcNAc(b1-3)Gal(b1-4)GlcNAc(b1-3)Gal(b1-4)GlcNAc(b1-3)Gal(b1-4)GlcNAc(b1-2)[GlcNAc(b1-3)Gal(b1-4)GlcNAc(b1-3)Gal(b1-4)GlcNAc(b1-3)Gal(b1-4)GlcNAc(b1-3)Gal(b1-4)GlcNAc(b1-6)]Man(a1-6)[GlcNAc(b1-3)Gal(b1-4)GlcNAc(b1-3)Gal(b1-4)GlcNAc(b1-3)Gal(b1-4)GlcNAc(b1-3)Gal(b1-4)GlcNAc(b1-2)Man(a1-3)]Man(b1-4)GlcNAc(b1-4)[Fuc(a1-6)]GlcNAc
# Method in brief: as §1
binder,measurement,setting,value
Cohesin-hMARCO (Homo sapiens) (protein) LDDLDAVRIKVDTVNAKPGDTVRIPVRFSGIPSKGIANCDFVYSYDPNVLEIIEIEPGDIIVDPNPDKSFDTAVYPDRKIIVFLFAEDSGTGAYAITKDGVFATIVAKVKEGAPNGLSVIKFVEVGGFANNDLVEQKTQFFDGGANVGDTTEPATPTTPVTTPTTTDDLDAASVRIVGSSNRGRAEVYYSGTWGTICDDEWQNSDAIVFCRMLGYSKGRALYKVGAGTGQIWLDNVQCRGTESTLWSCTKNSWGHHDCSHEEDAGVECSVHHHHHH,glycan array binding signal (z-score),[1],-0.456
same,glycan array binding signal (z-score),GlcNAc(b1-3)Fuc,-0.459
same,glycan array binding signal (z-score),GlcNAc(b1-3)Gal,-0.319
same,glycan array binding signal (z-score),[2],-0.463
same,glycan array binding signal (z-score),GlcNAc(b1-3)Gal(b1-4)Glc,-0.396
same,glycan array binding signal (z-score),[3],-0.343
same,glycan array binding signal (z-score),[4],-0.546
same,glycan array binding signal (z-score),[5],-0.378
same,glycan array binding signal (z-score),[6],0.023
same,glycan array binding signal (z-score),[7],-0.388
same,glycan array binding signal (z-score),[8],0.286
same,glycan array binding signal (z-score),[9],-0.453
same,glycan array binding signal (z-score),[10],-0.25
same,glycan array binding signal (z-score),[11],-0.424
same,glycan array binding signal (z-score),[12],-0.409
same,glycan array binding signal (z-score),[13],-0.46
same,glycan array binding signal (z-score),[14],-0.144
same,glycan array binding signal (z-score),[15],-0.467
same,glycan array binding signal (z-score),[16],-0.537
